Data: PubChem BioAssay (NCATS)
The inconclusive results got no clear call from the source; some entries with a clear call stand among them for comparison. For part of these data: Where the call is inconclusive, the potency comes from a doubtful curve fit. Active and inactive are the calls of the source. Unless noted, the call rests on the fitted dose curve; in most records, active means well fitted curve in the direction sought with a large enough effect; inconclusive means small, poorly fitted or top-dose-only effect, or another doubt; inactive means no such curve, though single readings can be large; an effect the other way counts as inactive or inconclusive.

What was measured:
[1] = P-glycoprotein substrates identified in KB-8-5-11 adenocarcinoma cell line, qHTS therapeutic library screen (AID 1346987); further: nearly all actives have a fitted effect of over 65% in size; further: potency means the concentration at half of the fitted maximal effect; on activity change, negative = cytotoxicity: on the % scale 0 is the no-effect control and ±100 the full control effect
In short: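 KB-8-5-11: colchicine-selected sub-line of KB-3-1 over-expressing P-gp; assay medium lacked colchicine. 72 h drug exposure at 37 degree C, CellTiter-Glo.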

[2] = Primary qHTS for inhibitors of nuclear receptor binding SET domain protein 2 (NSD2) in an isogenic RCH-ACV NSD2 p.E1099K mutant (9B) (AID 1645876); further: nearly all actives have a fitted effect of over 70% in size; further: potency means the concentration at half of the fitted maximal effect
[3] = molecular target: Phospholipid hydroperoxide glutathione peroxidase GPX4 (Homo sapiens) (UniProt P36969); assay: Primary qHTS Assay for Inhibitors of Recombinant Selenoprotein Glutathione Peroxidase 4 (GPX4) (AID 1845192); further: on the % scale 0 is the no-effect control and ±100 the full control effect; nearly all actives have a fitted effect of over 65% in size
In short: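 NADPH consumption, followed by fluorescence at 340/450 nm between 0 and 15 min, reports GPX4 activity via coupled glutathione reductase (100 nM). Enzyme 200 nM was pre-exposed to compound 30 min; 0.5 mM cumene hydroperoxide and 1 mM GSH served as substrates.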

[4] = Primary fluorescence-based thiol-reactive (MSTI) qHTS assay for identification of artifact compounds. (AID 1845221);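 further: potency means the concentration at half of the fitted maximal effect; thiol-reactive compounds lower the probe fluorescence signal; nearly all actives have a fitted effect of over 65% in size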
In short: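 qHTS titration of compound; 4 uM MSTI, PBS pH 7.4, 2% DMSO; 1 h RT, dark; fluorescence 525/598 nm; normalized to Acetyl-MSTI and MSTI; 4-parameter Hill fit.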

[5] = Primary redox qHTS assay for identification of artifact compounds. (AID 1845223); conditions: Amplex Red/HRP redox cycling with DTT, fluorescence; redox activity (% of DA3003): at 53.8 µM (top of the series); further: potency means the concentration at half of the fitted maximal effect
In short: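 Amplex Red (25 uM) and HRP (250 mU/mL) in HBSS, with compounds for 15 min, then 250 uM DTT for 30 min, room temperature, dark. Fluorescence 525/598 nm read; normalized to DMSO and 10 uM DA3003; Hill fit.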

HEK293 = assay: Cytotoxic Profiling of Annotated Libraries Using Quantitative High-Throughput Screening (AID 1296008); conditions: Five cell lines viability, CellTiter-Glo ATP luminescence, 48-72 h; max response: stronger effect = lower value; further: nearly all actives have a fitted effect of over 60% in size; further: potency means the concentration at half of the fitted maximal effect; on max response: on the % scale 0 is the no-effect control and ±100 the full control effect
In short: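 Cytotoxicity was measured as CellTiter-Glo ATP luminescence, read after 10 min at room temperature. Compound treatment of the cells lasted 48 or 72 hr at 37 degrees Celsius in a qHTS format.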

[6] = tested on: Zika virus NS2B-NS3 protease (unlinked complex); assay: Primary screen GU Rhodamine qHTS for Zika virus inhibitors: Unlinked NS2B-NS3 protease assay (AID 1347159); further: potency means the concentration at half of the fitted maximal effect; nearly all actives have a fitted effect of over 60% in size
In short: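 Noncovalent NS2B hydrophilic domain/NS3 protease complex (25 nM final) in 10 mM Tris-HCl pH 8.0, 0.01% Tween 20, preincubated 15 min with compounds (up to 114 microM), then 1.5 microM Rhodamine110 substrate. Fluorescence change over 15 min fitted to 4-parameter Hill.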

[7] = tested on: Zika virus NS2B-NS3 protease (linked construct); assay: Primary screen NINDS Rhodamine qHTS for Zika virus inhibitors (AID 1347160); conditions: activity change, negative = inhibition: at 57.1 µM (top of the series) unless noted; further: nearly all actives have a fitted effect of over 55% in size; further: potency means the concentration at half of the fitted maximal effect
In short: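 Purified NS2B-NS3 protease with the NS2B hydrophilic domain joined by a flexible linker (25 nM) in 10 mM Tris-HCl pH 8.0, 0.01% Tween 20, preincubated 15 min at RT with compound; Rhodamine110 peptide substrate 1.5 µM; fluorescence change over 15 min; 4-parameter Hill fit.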

[8] = molecular target: Cytochrome P450 2D6 (Homo sapiens) (UniProt P10635); assay: Cytochrome P450 family 2 subfamily D member 6 (CYP2D6) small molecule antagonists: luciferase biochemical (cell-free) qHTS assay (AID 1645840; active means well fitted curve in the direction sought with a large enough effect in the repeat runs; inconclusive means weak or mixed curves; inactive means no such curve, though single readings can be large; an effect the other way counts as inactive or inconclusive; further: nearly all actives have a fitted effect of over 55% in size; further: potency means the concentration at half of the fitted maximal effect; on activity change, negative = inhibition: on the % scale 0 is the no-effect control and ±100 the full control effect)
In short: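 P450-Glo luminescent screen: recombinant CYP2D6 enzyme–proluciferin substrate mix preincubated with compound 10 min at room temperature, then NADPH regeneration added for 1 h at room temperature. Detection reagent added for 20 min; luciferin light read as relative luminescence units.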

[9] = Primary qHTS for inhibitors of nuclear receptor binding SET domain protein 2 (NSD2) in an RCH-ACV wild type WT cells (2C) (AID 1645877); conditions: activity change, negative = cell killing: at 44.9 µM (top of the series) unless noted; further: potency means the concentration at half of the fitted maximal effect; nearly all actives have a fitted effect of over 70% in size
[10] = molecular target: Cytochrome P450 2C9 (Homo sapiens) (UniProt P11712); assay: Cytochrome P450 family 2 subfamily C member 9 (CYP2C9) small molecule antagonists: luciferase biochemical (cell-free) qHTS assay (AID 1645842; active means well fitted curve in the direction sought with a large enough effect in the repeat runs; inconclusive means weak or mixed curves; inactive means no such curve, though single readings can be large; an effect the other way counts as inactive or inconclusive; further: nearly all actives have a fitted effect of over 55% in size; further: potency means the concentration at half of the fitted maximal effect; on activity change, negative = inhibition: on the % scale 0 is the no-effect control and ±100 the full control effect)
In short: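 Luminescence, after 20 min with luciferin detection reagent, reflected CYP2C9 turnover during a 1 h NADPH-driven reaction at 37C. Enzyme-substrate mix contained 0.4% bovine serum albumin and was preincubated with compound 10 min at room temperature.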

[11] = tested on: Nanoluciferase (engineered Oplophorus gracilirostris luciferase); assay: Primary Nanoluciferase (NLuc) qHTS assay for identification of artifact compounds. (AID 1845222);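 further: NLuc secreted into diluted conditioned medium of S16 cells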; further: potency means the concentration at half of the fitted maximal effect;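 on activity, negative = inhibition: 0% = DMSO and -100% = no enzyme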
In short: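 NLuc from S16 cell medium (1:55) plus test compounds, 15 min, room temperature. Luminescence after Nano-Glo (1:100) addition, 5 min.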

[12] = molecular target: Calcium and integrin-binding protein 1 (Homo sapiens) (UniProt Q99828); assay: Primary qHTS for Identification of Calcium Integrin Binding Protein 1 (CIB1) Competitor (AID 1508620); further: potency means the concentration at half of the fitted maximal effect
In short: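 CIB1-GST (1 uM final) and compound incubated 15 min at room temperature before adding FITC-alphaIIb peptide tracer (100 nM final). Competition for binding read by fluorescence polarization (ex 480, em 540) after another 15 min at room temperature.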

Tov112D = assay: Primary qHTS to identify gynecologic anti-cancer compounds using libraries of approved drugs and bioactive compounds (AID 1345084); conditions: Gynecologic cancer cell panel viability, ATPlite luminescence, 48 h; series mostly up to 57.5 µM; further: on the % scale 0 is the no-effect control and ±100 the full control effect; nearly all actives have a fitted effect of over 55% in size
In short: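 Cells, 1,000 per well, were allowed to settle for 16 h at 37 C before compound addition. Five concentrations were tested for 48 h, and viability was read by ATPlite luminescence after 15 min at room temperature.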

[13] = molecular target: Glutathione peroxidase 1 (Homo sapiens) (UniProt P07203); assay: Primary qHTS Assay for Inhibitors of Recombinant Selenoprotein Glutathione Peroxidase 1 (GPX1) (AID 1845191); conditions: activity, negative = inhibition: at 48.8 µM (top of the series); further: potency means the concentration at half of the fitted maximal effect; nearly all actives have a fitted effect of over 65% in size
In short: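 10 nM GPX1 + cpd, 30 min RT; start w/ 1 mM GSH, 0.5 mM cumene hydroperoxide, 0.5 mM NADPH, 100 nM GR, 0.01% BSA; buffer 50 mM Tris-HCl pH 7.5, 2 mM EDTA, 150 mM NaCl; Fl 340/450, 0 & 15 min.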
Tags describe the fitted curve by direction and shape.

Sequence of UniProt P10635 (P10635 whole entry, looked up): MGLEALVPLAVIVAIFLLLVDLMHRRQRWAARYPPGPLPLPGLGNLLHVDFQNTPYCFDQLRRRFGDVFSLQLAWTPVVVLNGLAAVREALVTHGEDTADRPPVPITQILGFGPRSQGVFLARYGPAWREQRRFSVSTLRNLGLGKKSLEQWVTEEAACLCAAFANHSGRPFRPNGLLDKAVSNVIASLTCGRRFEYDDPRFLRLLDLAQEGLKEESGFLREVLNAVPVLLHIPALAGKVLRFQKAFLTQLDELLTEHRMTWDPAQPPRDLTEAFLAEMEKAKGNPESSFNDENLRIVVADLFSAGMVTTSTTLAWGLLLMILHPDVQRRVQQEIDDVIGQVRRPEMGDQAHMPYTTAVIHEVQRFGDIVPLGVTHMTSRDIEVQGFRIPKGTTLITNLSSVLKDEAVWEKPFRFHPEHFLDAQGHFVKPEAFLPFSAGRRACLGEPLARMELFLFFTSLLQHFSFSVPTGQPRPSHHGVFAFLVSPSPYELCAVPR
Sequence of UniProt P36969 (P36969 whole entry, looked up): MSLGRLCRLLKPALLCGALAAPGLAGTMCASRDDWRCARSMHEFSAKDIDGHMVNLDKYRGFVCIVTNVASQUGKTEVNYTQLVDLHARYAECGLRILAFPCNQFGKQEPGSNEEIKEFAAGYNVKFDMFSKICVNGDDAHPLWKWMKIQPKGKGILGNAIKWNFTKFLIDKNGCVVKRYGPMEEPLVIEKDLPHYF
Sequence of UniProt P11712 (P11712 whole entry, looked up): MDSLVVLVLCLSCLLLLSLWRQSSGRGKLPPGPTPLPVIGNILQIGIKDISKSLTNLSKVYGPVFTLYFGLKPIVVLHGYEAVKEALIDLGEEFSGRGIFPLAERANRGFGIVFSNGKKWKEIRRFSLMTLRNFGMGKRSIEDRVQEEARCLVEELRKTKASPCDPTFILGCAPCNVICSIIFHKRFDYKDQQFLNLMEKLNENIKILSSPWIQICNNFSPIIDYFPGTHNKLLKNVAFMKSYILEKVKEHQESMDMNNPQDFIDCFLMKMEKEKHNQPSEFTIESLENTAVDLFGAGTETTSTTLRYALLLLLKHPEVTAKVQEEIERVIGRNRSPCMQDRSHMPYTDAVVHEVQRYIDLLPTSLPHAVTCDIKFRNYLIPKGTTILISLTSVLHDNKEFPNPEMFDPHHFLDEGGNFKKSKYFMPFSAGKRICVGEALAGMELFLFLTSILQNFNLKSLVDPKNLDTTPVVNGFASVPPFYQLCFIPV
Sequence of UniProt P07203 (P07203 whole entry, looked up): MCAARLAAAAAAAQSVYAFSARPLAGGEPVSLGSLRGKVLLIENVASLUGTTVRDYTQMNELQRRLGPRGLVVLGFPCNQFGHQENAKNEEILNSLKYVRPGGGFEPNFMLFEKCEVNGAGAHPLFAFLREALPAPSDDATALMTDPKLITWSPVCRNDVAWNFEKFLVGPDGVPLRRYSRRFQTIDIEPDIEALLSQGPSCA
Sequence of UniProt Q99828 (Q99828 whole entry, looked up): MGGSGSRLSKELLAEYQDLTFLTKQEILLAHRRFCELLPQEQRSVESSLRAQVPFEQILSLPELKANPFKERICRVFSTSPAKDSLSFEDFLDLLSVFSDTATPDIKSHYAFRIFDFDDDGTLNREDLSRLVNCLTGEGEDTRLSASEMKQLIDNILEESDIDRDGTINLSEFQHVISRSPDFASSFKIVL

C/C=C(\C)C(=O)OCC1OC(OCC2OC(OC3(CO)OC(CO)C(O)C3O)C(O)C(O)C2O)C(O)C(O)C1O (stereo unspecified)
Potency [1]: inactive | Potency [2]: inactive | Potency [3]: inactive | Potency [4]: inconclusive: 2.81 µM [inhibitor, partial curve] | Potency [5]: inconclusive: 7.93 µM [activator, single point] | max response (HEK293): inactive: -3.28%

O=C(NCc1nc2ccccc2c(=O)n1-c1ccc(F)cc1)Nc1ccc(Cl)c(C(F)(F)F)c1
Potency [1]: inconclusive: 16.4 µM [inhibitor, partial curve] | Potency [6]: inconclusive: 39.8 µM [inhibitor, partial curve] | Potency [7]: inconclusive: 39.8 µM [inhibitor, single point] | Potency [8]: inconclusive: 7.56 µM [inhibitor, partial curve] | Potency [9]: active: 23 µM | Potency (HEK293): inconclusive: 18.4 µM [inhibitor, single point]

Cc1nnc(-c2ccc(-c3ccc(C(=O)Nc4ccc(O)c(N5CCN(C)CC5)c4)cc3)c(C)c2)o1
Potency [1]: inconclusive: 29.1 µM [inhibitor, single point] | Potency [10]: inactive | Potency [2]: inconclusive: 18.3 µM [inhibitor, partial curve, poor fit] | Potency [9]: inconclusive: 10.3 µM [inhibitor, partial curve] | Potency [4]: inconclusive: 15 µM [inhibitor, partial curve] | Potency [11]: active: 1.51 µM | Potency [5]: inconclusive: 9.47 µM [activator, partial curve] | Potency (HEK293): inconclusive: 29.1 µM [inhibitor, single point]

Cc1c(O)cc2c(c1O)COC1(O)CCCOC21 (stereo unspecified)
Potency [1]: inactive | Potency [12]: inconclusive: 50.1 µM [inhibitor, partial curve, poor fit] | Potency [4]: inconclusive: 6.7 µM [inhibitor, partial curve, poor fit] | max response (HEK293): inactive: -1.54%

CC1(C)CCCC2(C)C1C(O)C=C(CO)C2(O)C(=O)O (stereo unspecified)
Potency [7]: inconclusive: 7.08 µM [inhibitor, full curve, poor fit] | Potency [3]: inactive | outcome (HEK293): inactive | Potency (Tov112D): inactive

CCC[C@H](N[C@H]1CCc2cc(F)cc(F)c2C1)C(=O)Nc1cn(C(C)(C)CNCC(C)(C)C)cn1
Potency [1]: inconclusive: 8.2 µM [inhibitor, partial curve] | Potency [8]: inactive | Potency [10]: inconclusive: 9.52 µM [inhibitor, partial curve] | Potency [9]: inconclusive: 20.5 µM [inhibitor, single point] | Potency (HEK293): inconclusive: 18.4 µM [inhibitor, single point]

COc1ccc(CN2CCN(CCCSc3cc(C(C)(C)C)c(O)c(C(C)(C)C)c3)CC2)c(OC)c1OC
activity change, negative = cytotoxicity [1]: inactive: -16.1% [at 9.29 µM] | Potency [2]: inconclusive: 4.35 µM [inhibitor, single point] | Potency [9]: inconclusive: 4.35 µM [inhibitor, single point] | Potency [3]: inactive | Potency (HEK293): inconclusive: 4.91 µM [inhibitor, single point]

Cc1c(Cl)cccc1S(=O)(=O)Nc1nc(NCCc2ccccc2)nc2c1CN(Cc1ccccc1)CC2
Potency [1]: inconclusive: 18.4 µM [inhibitor, single point] | Potency [7]: inconclusive: 20 µM [inhibitor, single point] | Potency [2]: inconclusive: 20.5 µM [inhibitor, partial curve] | Potency [9]: inconclusive: 16.3 µM [inhibitor, single point] | Potency [13]: inconclusive: 20.2 µM [inhibitor, partial curve] | Potency [11]: inactive | Potency [5]: inconclusive: 18.9 µM [activator, partial curve] | Potency (HEK293): inconclusive: 29.1 µM [inhibitor, single point]

CC1=CC(=O)CC(C)(C)C1CO[C@@H]1O[C@H](CO)[C@@H](O)[C@H](O)[C@H]1O (stereo partly specified)
Potency [1]: inactive | Potency [7]: inactive | Potency [2]: inactive | max response (HEK293): inactive: -1.36%

CC[C@H](C)/C=C(C)/C=C/C1=CC2=C(Cl)C(=O)[C@](C)(O)[C@H](OC(C)=O)[C@H]2CO1
Potency [1]: inactive | Potency [7]: active: 11.2 µM | Potency [2]: inconclusive: 20.1 µM [inhibitor, single point] | Potency [4]: inconclusive: 8.26 µM [inhibitor, partial curve] | Potency (HEK293): inconclusive: 20.2 µM [inhibitor, single point]

O=C(N[C@H]1CCN(C(=O)c2cc(C(F)(F)F)cc(C(F)(F)F)c2)[C@H](Cc2ccc(Cl)cc2)C1)c1ccnc2ccccc12
Potency [1]: inconclusive: 7.09 µM [inhibitor, partial curve, poor fit] | Potency [7]: inconclusive: 11.2 µM [inhibitor, single point] | Potency [10]: active: 10.7 µM | Potency [2]: inconclusive: 14.2 µM [inhibitor, single point] | Potency [9]: inconclusive: 8.93 µM [inhibitor, single point] | Potency (HEK293): inconclusive: 12.6 µM [inhibitor, single point]

COc1ccc(CNC(=O)c2cc(-c3cncc(C)c3)ncc2-c2nccs2)nc1OC
Potency [1]: inconclusive: 13 µM [inhibitor, partial curve] | Potency [8]: inconclusive: 16.9 µM [inhibitor, single point] | Potency [13]: inconclusive: 32.1 µM [inhibitor, single point] | Potency [3]: inactive | max response (HEK293): inactive: -57.9%
